Source: a collection of fitness landscapes (doi:10.1038/s41467-024-54723-y)
In all, about 18,000 sequences were measured (“TetR repression strength (sort-seq, GFP reporter)”: median about 0.23, highest 2% from about 0.68 on). This is one part of the list.

Molecular target: TetR (class B, Tn10) (UniProt P04483)
Assay: TetR repression strength (sort-seq, GFP reporter) (relative to tetO2 = 1); higher = stronger repression
Details: E. coli
Method in brief: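 Repression strength is the top bin index plus one minus the read-weighted mean bin, relative to the unaltered operator's value. A low-copy library in E. coli SIG10-MAX randomized eight operator positions between a constitutive promoter and sfGFP, with TetR expressed constitutively; cells grew 5 h at 37 °C in LB with 50 µg/mL chloramphenicol and 10^6 were FACS-sorted into 13 bins that were each Illumina-sequenced. Three independent transformations were averaged, keeping only members with ≥30 reads in all replicates and CV ≤0.5.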

UniProt P04483, sequence (P04483 whole entry): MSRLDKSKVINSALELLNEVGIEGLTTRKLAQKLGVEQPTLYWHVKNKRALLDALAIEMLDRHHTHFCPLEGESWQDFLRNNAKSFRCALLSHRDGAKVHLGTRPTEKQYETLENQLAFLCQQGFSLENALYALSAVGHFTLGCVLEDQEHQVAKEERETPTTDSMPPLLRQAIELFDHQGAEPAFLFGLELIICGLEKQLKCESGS

Sequence | TetR repression strength
TCCCTTCTAGTGGAGGAGA | 0.205
TCCCTCTAAGTAATAGAGA | 0.472
TCCCCTAGAGTAAGTGAGA | 0.252
TCCCTAACAGTATATGAGA | 0.284
TCCCGTCGAGTAAAGGAGA | 0.22
TCCCTCAGAGTACAGGAGA | 0.104
TCCCTTCAAGTAAATGAGA | 0.562
TCCCGGAGAGTGGTAGAGA | 0.16
TCCCCTATAGTGGTCGAGA | 0.427
TCCCAGCGAGTGACCGAGA | 0.694
TCCCTTAAAGTGCGAGAGA | 0.289
TCCCTCGGAGTGGACGAGA | 0.107
TCCCTCCGAGTGAGGGAGA | 0.346
TCCCCAGTAGTCGGAGAGA | 0.136
TCCCATGTAGTCGGGGAGA | 0.215
TCCCCTAAAGTACATGAGA | 0.282
TCCCGGGCAGTGGCAGAGA | 0.472
TCCCTTGCAGTTTTGGAGA | 0.234
TCCCCCGGAGTCGTTGAGA | 0.255
TCCCTGTCAGTGATCGAGA | 0.734
TCCCTATGAGTGCATGAGA | 0.311
TCCCGTGTAGTGAAGGAGA | 0.0744
TCCCGGGTAGTCTGAGAGA | 0.147
TCCCATACAGTCAGCGAGA | 0.187
TCCCCAGTAGTACTTGAGA | 0.0729
TCCCAGGCAGTCTTGGAGA | 0.252

Sequence | TetR repression strength
TCCCTGGCAGTGTTAGAGA | 0.219
TCCCAGCCAGTTGGAGAGA | 0.355
TCCCGATGAGTGACTGAGA | 0.333
TCCCTATGAGTGGCCGAGA | 0.402
TCCCATTTAGTGTCCGAGA | 0.311
TCCCGCTCAGTTTCTGAGA | 0.426
TCCCATGGAGTGGAGGAGA | 0.0894
TCCCAGATAGTTGGGGAGA | 0.174
TCCCATGGAGTTAGTGAGA | 0.232
TCCCGGCAAGTGAACGAGA | 0.496
TCCCCCTGAGTATTGGAGA | 0.104
TCCCTGGTAGTCAAGGAGA | 0.117
TCCCCTCGAGTGACGGAGA | 0.101
TCCCGGATAGTGACCGAGA | 0.131
TCCCCGGTAGTTACGGAGA | 0.201
TCCCAGTAAGTCCCCGAGA | 0.233
TCCCCACGAGTGGTCGAGA | 0.173
TCCCAGGGAGTTACCGAGA | 0.112
TCCCTCCGAGTCATCGAGA | 0.264
TCCCTTCGAGTTAGAGAGA | 0.228
TCCCAGGCAGTTGAAGAGA | 0.182
TCCCACTCAGTTCTAGAGA | 0.611
TCCCCTTCAGTTGAGGAGA | 0.079
TCCCGTGTAGTCTGCGAGA | 0.0873
TCCCGAATAGTGGTGGAGA | 0.306
TCCCCCGCAGTTGCGGAGA | 0.0787

Sequence | TetR repression strength
TCCCGGTGAGTCGTTGAGA | 0.289
TCCCGAGCAGTAAAGGAGA | 0.0954
TCCCGCTGAGTTGGGGAGA | 0.28
TCCCTAATAGTGGTCGAGA | 0.278
TCCCCCCAAGTTGATGAGA | 0.369
TCCCTCTGAGTGCTAGAGA | 0.333
TCCCGAAGAGTGAGTGAGA | 0.207
TCCCATAGAGTGTAAGAGA | 0.309
TCCCGAGGAGTAAGGGAGA | 0.168
TCCCGGAAAGTGGCTGAGA | 0.196
TCCCCAAGAGTAAGGGAGA | 0.0854
TCCCGCTGAGTAAATGAGA | 0.257
TCCCTATAAGTCAGTGAGA | 0.427
TCCCTCTCAGTGCAAGAGA | 0.607
TCCCTGCCAGTGCGAGAGA | 0.407
TCCCGCTCAGTCCTGGAGA | 0.63
TCCCAGGTAGTCGCGGAGA | 0.151
TCCCGCATAGTGATAGAGA | 0.512
TCCCTTACAGTTCGTGAGA | 0.274
TCCCCTCTAGTTTACGAGA | 0.319
TCCCTACTAGTTTGGGAGA | 0.259
TCCCATTAAGTTGGGGAGA | 0.112
TCCCGTAAAGTTGAAGAGA | 0.271
TCCCTGGAAGTTCGCGAGA | 0.207
TCCCCGGTAGTGGCGGAGA | 0.17
TCCCATACAGTTAGGGAGA | 0.512

Sequence | TetR repression strength
TCCCTGAGAGTGTCGGAGA | 0.242
TCCCCAGGAGTCGGTGAGA | 0.313
TCCCGAGTAGTCTTAGAGA | 0.243
TCCCCTGAAGTATTGGAGA | 0.143
TCCCGCTGAGTTGTGGAGA | 0.0444
TCCCTGTCAGTGATAGAGA | 0.863
TCCCGCATAGTGGGTGAGA | 0.0459
TCCCTAAAAGTGGAGGAGA | 0.182
TCCCAGCCAGTTTGTGAGA | 0.19
TCCCATTGAGTTCACGAGA | 0.468
TCCCACAAAGTCGCCGAGA | 0.439
TCCCCGGGAGTGCAAGAGA | 0.346
TCCCATGTAGTCCAGGAGA | 0.595
TCCCTGGAAGTGTGCGAGA | 0.207
TCCCATGGAGTCAATGAGA | 0.0471
TCCCGGCAAGTACCGGAGA | 0.223
TCCCTGGAAGTCTGCGAGA | 0
TCCCAATTAGTAACCGAGA | 0.459
TCCCGACGAGTACCTGAGA | 0.245
TCCCTAAAAGTATATGAGA | 0.328
TCCCATCGAGTCGCAGAGA | 0.329
TCCCGATCAGTTTAGGAGA | 0.181
TCCCACTAAGTACTGGAGA | 0.444
TCCCGGCCAGTTATAGAGA | 0.635
TCCCCGCCAGTGCAAGAGA | 0.352
TCCCGTGAAGTGGTCGAGA | 0.0333

Sequence | TetR repression strength
TCCCGTAGAGTTGGAGAGA | 0.228
TCCCTACAAGTGTCGGAGA | 0.104
TCCCGCTGAGTTTGTGAGA | 0.158
TCCCACACAGTTTGTGAGA | 0.375
TCCCGCCCAGTGGCAGAGA | 0.305
TCCCGCTCAGTACTTGAGA | 0.241
TCCCTCAGAGTGCTGGAGA | 0.475
TCCCCGGCAGTATGTGAGA | 0.189
TCCCGAAGAGTCGTAGAGA | 0.373
TCCCGATCAGTCGATGAGA | 0.309
TCCCTAGGAGTGAAAGAGA | 0.411
TCCCTTCTAGTCTCCGAGA | 0.382
TCCCGCGTAGTCGGTGAGA | 0.167
TCCCAGATAGTTTAAGAGA | 0.238
TCCCTATTAGTCGAGGAGA | 0.35
TCCCGCGGAGTAATGGAGA | 0.167
TCCCCGCCAGTCCGCGAGA | 0.233
TCCCAGTTAGTGGTGGAGA | 0.203
TCCCTGATAGTTCGTGAGA | 0.288
TCCCTGACAGTGGGTGAGA | 0.155
TCCCGTTGAGTTTGCGAGA | 0.167
TCCCTAGCAGTGCTTGAGA | 0.321
TCCCACGCAGTGTCCGAGA | 0.242
TCCCAAGGAGTTGTTGAGA | 0.331
TCCCTAGTAGTAGTGGAGA | 0.159
TCCCTGGAAGTGATAGAGA | 0.473
